From PMC9911399, “Two distinct binding modes provide the RNA-binding protein RbFox with extraordinary sequence specificity” come the findings set out here.

B1: CGAGCUU (DNA:RNA)
RNA: GGGAGACCGGAAUUCAGAUUGUCCCGAGCUUUUAAAUCCCGUCGUAGCCACCA
DNA 1: CAATCTGAATTCCGGTCTCCC
DNA 2: TGGTGGCTACGACGGGATT
B2: UCCGGGA (DNA:RNA)
RNA: B1 RNA with C25U, G26C, A27C, C29G, U30G, U31A
DNA 1: CAATCTGAATTCCGGTCTCCC
DNA 2: TGGTGGCTACGACGGGATT
B3: ACUAUGU (DNA:RNA)
RNA: B1 RNA with C25A, G26C, A27U, G28A, C29U, U30G
DNA 1: CAATCTGAATTCCGGTCTCCC
DNA 2: TGGTGGCTACGACGGGATT
B4: UUGAUUA (DNA:RNA)
RNA: B1 RNA with C25U, G26U, A27G, G28A, C29U, U31A
DNA 1: CAATCTGAATTCCGGTCTCCC
DNA 2: TGGTGGCTACGACGGGATT
B5: GGUGCGG (DNA:RNA)
RNA: B1 RNA with C25G, A27U, U30G, U31G
DNA 1: CAATCTGAATTCCGGTCTCCC
DNA 2: TGGTGGCTACGACGGGATT
B6: CGAUACA (DNA:RNA)
RNA: B1 RNA with G28U, C29A, U30C, U31A
DNA 1: CAATCTGAATTCCGGTCTCCC
DNA 2: TGGTGGCTACGACGGGATT
B7: AACUUGG (DNA:RNA)
RNA: GGGAGACCGGAAUUCAGAUUGUCCAACUUGGUUAAAUCCCGUCGUAGCCACCA
DNA 1: CAATCTGAATTCCGGTCTCCC
DNA 2: TGGTGGCTACGACGGGATT
B8: GUUAGAA (DNA:RNA)
RNA: GGGAGACCGGAAUUCAGAUUGUCCGUUAGAAUUAAAUCCCGUCGUAGCCACCA
DNA 1: CAATCTGAATTCCGGTCTCCC
DNA 2: TGGTGGCTACGACGGGATT
B9: UGGAUAG (DNA:RNA)
RNA: B7 RNA with A25U, A26G, C27G, U28A, G30A
DNA 1: CAATCTGAATTCCGGTCTCCC
DNA 2: TGGTGGCTACGACGGGATT
B10: AUACAGG (DNA:RNA)
RNA: B7 RNA with A26U, C27A, U28C, U29A
DNA 1: CAATCTGAATTCCGGTCTCCC
DNA 2: TGGTGGCTACGACGGGATT
B11: CCAGCCG (DNA:RNA)
RNA: B1 RNA with G26C, U30C, U31G
DNA 1: CAATCTGAATTCCGGTCTCCC
DNA 2: TGGTGGCTACGACGGGATT
B12: UGCCCUC (DNA:RNA)
RNA: B1 RNA with C25U, A27C, G28C, U31C
DNA 1: CAATCTGAATTCCGGTCTCCC
DNA 2: TGGTGGCTACGACGGGATT
B13: CAAGACA (DNA:RNA)
RNA: B1 RNA with G26A, C29A, U30C, U31A
DNA 1: CAATCTGAATTCCGGTCTCCC
DNA 2: TGGTGGCTACGACGGGATT
B14: CUUCCAA (DNA:RNA)
RNA: B8 RNA with G25C, A28C, G29C
DNA 1: CAATCTGAATTCCGGTCTCCC
DNA 2: TGGTGGCTACGACGGGATT
B15: AGGCGCA (DNA:RNA)
RNA: B8 RNA with G25A, U26G, U27G, A28C, A30C
DNA 1: CAATCTGAATTCCGGTCTCCC
DNA 2: TGGTGGCTACGACGGGATT
B16: UUCAGGU (DNA:RNA)
RNA: B8 RNA with G25U, U27C, A30G, A31U
DNA 1: CAATCTGAATTCCGGTCTCCC
DNA 2: TGGTGGCTACGACGGGATT
B17: CCGACGA (DNA:RNA)
RNA: B1 RNA with G26C, A27G, G28A, U30G, U31A
DNA 1: CAATCTGAATTCCGGTCTCCC
DNA 2: TGGTGGCTACGACGGGATT
B18: UCGUACC (DNA:RNA)
RNA: B7 RNA with A25U, A26C, C27G, U29A, G30C, G31C
DNA 1: CAATCTGAATTCCGGTCTCCC
DNA 2: TGGTGGCTACGACGGGATT
B19: AAGUCCG (DNA:RNA)
RNA: B7 RNA with C27G, U29C, G30C
DNA 1: CAATCTGAATTCCGGTCTCCC
DNA 2: TGGTGGCTACGACGGGATT
B20: CUGCCGU (DNA:RNA)
RNA: B1 RNA with G26U, A27G, G28C, U30G
DNA 1: CAATCTGAATTCCGGTCTCCC
DNA 2: TGGTGGCTACGACGGGATT
B21: GCUAAUU (DNA:RNA)
RNA: B8 RNA with U26C, G29A, A30U, A31U
DNA 1: CAATCTGAATTCCGGTCTCCC
DNA 2: TGGTGGCTACGACGGGATT
B22: AUAUGCG (DNA:RNA)
RNA: B7 RNA with A26U, C27A, U29G, G30C
DNA 1: CAATCTGAATTCCGGTCTCCC
DNA 2: TGGTGGCTACGACGGGATT
B23: GCGUAAG (DNA:RNA)
RNA: B7 RNA with A25G, A26C, C27G, U29A, G30A
DNA 1: CAATCTGAATTCCGGTCTCCC
DNA 2: TGGTGGCTACGACGGGATT
B24: CAGGGAG (DNA:RNA)
RNA: B7 RNA with A25C, C27G, U28G, U29G, G30A
DNA 1: CAATCTGAATTCCGGTCTCCC
DNA 2: TGGTGGCTACGACGGGATT
B25: GAGGACG (DNA:RNA)
RNA: B7 RNA with A25G, C27G, U28G, U29A, G30C
DNA 1: CAATCTGAATTCCGGTCTCCC
DNA 2: TGGTGGCTACGACGGGATT
B26: UCCUUAA (DNA:RNA)
RNA: B7 RNA with A25U, A26C, G30A, G31A
DNA 1: CAATCTGAATTCCGGTCTCCC
DNA 2: TGGTGGCTACGACGGGATT
B27: GAAUGAC (DNA:RNA)
RNA: B8 RNA with U26A, U27A, A28U, A31C
DNA 1: CAATCTGAATTCCGGTCTCCC
DNA 2: TGGTGGCTACGACGGGATT
B28: AAUAGAA (DNA:RNA)
RNA: B8 RNA with G25A, U26A
DNA 1: CAATCTGAATTCCGGTCTCCC
DNA 2: TGGTGGCTACGACGGGATT
B29: GGGCUUA (DNA:RNA)
RNA: B1 RNA with C25G, A27G, G28C, C29U, U31A
DNA 1: CAATCTGAATTCCGGTCTCCC
DNA 2: TGGTGGCTACGACGGGATT
B30: GGUGUAA (DNA:RNA)
RNA: B8 RNA with U26G, A28G, G29U
DNA 1: CAATCTGAATTCCGGTCTCCC
DNA 2: TGGTGGCTACGACGGGATT
B31: CGACGCA (DNA:RNA)
RNA: B1 RNA with G28C, C29G, U30C, U31A
DNA 1: CAATCTGAATTCCGGTCTCCC
DNA 2: TGGTGGCTACGACGGGATT

Changes are numbered by the printed parent chain; changes in the protein carry UniProt numbers. This is one part of the list.

The assay deals with T1, RBFOX1 RRM (Homo sapiens, UniProt Q9NWB1 109-208).
T1 sequence: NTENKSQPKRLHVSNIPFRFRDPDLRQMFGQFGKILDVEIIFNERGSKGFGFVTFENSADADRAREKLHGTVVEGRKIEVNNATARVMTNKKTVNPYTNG
The assay can be described thus: EMSA; HiTS-Eq, 1 nM pool, 10 min; buffer printed only for the single-RNA assays: 10 mM Tris pH 7.5, 150 mM NaCl, 3.4 mM EDTA, 0.001% NP-40, 30 C. The conditions noted are these: tags: His6 N-terminal (pET28a); label: 5' 32P. The method in brief: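 Relative association constants, normalised to the cognate motif, were derived by comparing read counts of each RNA species with those of the control reaction. The RNA sequenced was the free fraction, separated by 8% native PAGE after a 10 min equilibration in 50 µL of 1 nM 5′-radiolabelled RNA (7 randomized nucleotides) with increasing concentrations of purified wild-type or mutant RbFox RRM.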
(In general: A gel shift assay detects complexes by their altered migration in electrophoresis.)
As to B1, the binding signal was 0.0118 KA relative to UGCAUGU. With B2 the figure was 0.00426 KA relative to UGCAUGU; with B3, 0.00348 KA relative to UGCAUGU; with B4, 0.0123 KA relative to UGCAUGU. Take B5: the binding signal was 0.0121 KA relative to UGCAUGU.

B6: the binding signal was 0.00454 KA relative to UGCAUGU. For the molecule B7, the binding signal is 0.00824 KA relative to UGCAUGU. Next, B8: 0.0142 KA relative to UGCAUGU; B9: 0.0268 KA relative to UGCAUGU. With B10 the figure was 0.00494 KA relative to UGCAUGU. On to B11, for which the binding signal is 0.00353 KA relative to UGCAUGU. With B12 the figure was 0.012 KA relative to UGCAUGU; with B13, 0.00187 KA relative to UGCAUGU; with B14, 0.00223 KA relative to UGCAUGU.

With B15, the binding signal was 0.0167 KA relative to UGCAUGU. Next, B16: 0.0103 KA relative to UGCAUGU; B17: 0.00517 KA relative to UGCAUGU.

With B18, the binding signal was 0.0103 KA relative to UGCAUGU. On to B19, for which the binding signal is 0.00881 KA relative to UGCAUGU. Next, B20: 0.0136 KA relative to UGCAUGU; B21: 0.00776 KA relative to UGCAUGU. For the molecule B22, the binding signal was 0.0104 KA relative to UGCAUGU.

In the case of B23, the binding signal was 0.0113 KA relative to UGCAUGU. Next, B24: 0.0155 KA relative to UGCAUGU; B25: 0.00734 KA relative to UGCAUGU; B26: 0.00377 KA relative to UGCAUGU.

Take B27: the binding signal was 0.0186 KA relative to UGCAUGU. In the case of B28, the binding signal is 0.00406 KA relative to UGCAUGU.

As for B29, the binding signal was 0.00939 KA relative to UGCAUGU.

Turning to B30, the binding signal was 0.00368 KA relative to UGCAUGU. Next, B31: 0.011 KA relative to UGCAUGU.
